{"source": "PubChem BioAssay AID652104", "about": "(National Center for Advancing Translational Sciences (NCATS), 2013)", "note": "The campaign covered roughly 410,000 compounds. About 7,200 (1.8%) were called active. This list was built around the results that the source calls inconclusive (neither active nor inactive); the mix of calls is not that of the screen. Calls follow the shape of the dose curve; as a rule, active = well fitted activation curve with a large enough effect; inconclusive = small, poorly fitted or top-dose-only effect, or another doubt; inactive = no such curve, though single readings can be large or run the other way. Potencies of inconclusive entries are left out as doubtful fits. Potency is read from the fitted curve at half-maximal effect; tags tell the direction and shape of the fitted curve."}
{"assay": "qHTS of TDP-43 Inhibitors; also: nearly all actives have a fitted effect of over 50% in size; as to growth rescue (activation): % of control where 0% means no effect", "settings": "TDP-43 expressing yeast growth rescue, BacTiter-Glo, 24 h; growth rescue (activation): at 46.1 µM (top of the series) unless noted", "procedure,_shortened": "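Yeast expressing TDP-43 (pregrown in raffinose, seeded at OD600=0.02 in galactose medium) exposed to compounds 24 hr at 30 deg C. Growth read by BacTiter-Glo luminescence; rescue of toxicity appears as increased signal.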"}
{"smiles": "COCCCNC(=O)c1ccc2c(c1)NC(=O)C(C(C)C)N2", "note": "(stereo not given)", "Potency": "inconclusive [activator, partial curve]"}
{"smiles": "C=CC[C@@H](CC(=O)N(CCO)Cc1ccccc1)C(=O)NC[C@H](OC(=O)[C@@H](CC=C)Cc1ccc(F)cc1)c1ccccc1", "growth rescue (activation)": "inactive: 0%"}
{"smiles": "COc1ccc(Cl)cc1C(=O)Nc1ccc2c(c1)OCO2", "Potency": "inconclusive [activator, full curve, poor fit]"}
{"smiles": "COc1cc(-c2cc(OC)c3c(C)oc(C)c3c(=O)c2)ccc1OC(=O)c1cccc(Cl)c1", "Potency": "active: 20 µM"}
{"smiles": "COC(=O)C1(C)CCCC2(C)c3cc(OC)ccc3C(=O)C(Br)C12", "note": "(stereo not given)", "Potency": "active: 25.1 µM"}
{"smiles": "COc1cc(F)c(C2=CC(=O)C[C@H](c3ccc(F)cc3)C2)cc1F", "Potency": "inconclusive [activator, single point]"}
{"smiles": "CC(C)(C)c1cc(CCC(=O)NNC(=S)NC(=O)c2ccccc2)cc(C(C)(C)C)c1O", "Potency": "inconclusive [activator, partial curve]"}
{"smiles": "COc1cc(NS(=O)(=O)c2ccc3ccccc3c2)c2ncccc2c1", "Potency": "active: 12.6 µM"}
{"smiles": "Cc1ccc(-c2nc3ccc(Br)cn3c2Cc2ccccc2C(F)(F)F)cc1", "Potency": "inconclusive [activator, single point]"}
{"smiles": "COCCN(CCOC)c1ncnc2c1c(-c1ccccc1)cn2-c1ccc(C)c(Cl)c1", "Potency": "active: 25.1 µM"}
{"smiles": "O=C(NC1CC2CCCC(C1)N2C(=O)NCc1ccccc1)C1CC1", "note": "(stereo not given)", "Potency": "inconclusive [activator, full curve, poor fit]"}
{"smiles": "C#CCSc1nnc(CSc2nc3ccccc3s2)n1-c1ccccc1", "Potency": "active: 22.4 µM"}
{"smiles": "C/C(=N\\Nc1ccc(Cl)c(Cl)c1)c1ccc(-n2ccnc2)cc1", "Potency": "inconclusive [activator, single point]"}
{"smiles": "COc1ccc(CCN2C(=O)CN(C3CCC(C)CC3)C(=O)C2c2ccc(OC(C)C)c(OC)c2)cc1OC", "note": "(stereo not given)", "growth rescue (activation)": "inactive: -15.9%"}
{"smiles": "OC(c1ccccc1)c1nc(-c2ccc(Cl)cc2)cs1", "note": "(stereo not given)", "Potency": "active: 35.5 µM"}
{"smiles": "CCCn1nc(C(=O)N2CCN(S(=O)(=O)c3ccc(C)c(C)c3)CC2)c2ccccc2c1=O", "Potency": "active: 35.5 µM"}
{"smiles": "CNS(=O)(=O)c1cccc(C(=O)OCC(=O)/C=C2/N(C)c3ccccc3C2(C)C)c1", "growth rescue (activation)": "inactive: -36.1%"}
{"smiles": "O=C(N/N=C/c1cccc(C(F)(F)F)c1)c1ccccc1O", "Potency": "inconclusive [activator, full curve]"}
{"smiles": "O=C1/C(=C/c2c[nH]c3ccccc23)CCC/C1=C\\c1c[nH]c2ccccc12", "growth rescue (activation)": "inconclusive: -33.2% [activator]"}
{"smiles": "Cn1c(=O)c2c(nc(Oc3ccccc3Cl)n2C)n(C)c1=O", "Potency": "inconclusive [activator, single point]"}
